Measurements published in patent publication US10112926B2 (priority 2014, dated 2018).
Where a name gives a salt, the structure may show the parent alone.

Tested on: IL-8-induced neutrophil shape change in human whole blood
Experiment: cells
Conditions: read-out: Assay L WBSC IC50

Row | SMILES | IC50 [µM]
1 | Cc1cc(-c2cc(-c3cc(S(=O)(=O)N4CCCC(C)(O)CC4)ccc3C)cnc2N)on1 (stereo not shown) [Example 19.21, 1-((3-(6-amino-5-(3-methylisoxazol-5-yl)pyridin-3-yl)-4-methylphenyl)sulfonyl)-4-methylazepan-4-ol trifluoroacetic acid salt] | 8.26
2 | Cc1noc(-c2cc(-c3cc(S(=O)(=O)N[C@H]4CC[C@H](CO)CC4)ccc3C)cnc2N)n1 [Example 19, trans 3-[6-Amino-5-(3-methyl-[1,2,4]oxadiazol-5-yl)-pyridin-3-yl]-N-(4-hydroxymethyl-cyclohexyl)-4-methyl-benzenesulfonamide hydrochloride] | 0.61
3 | Cc1cc(-c2cc(-c3cc(S(=O)(=O)N[C@@H]4CNC[C@H]4O)ccc3C)cnc2N)on1 [Example 19.4, 3-(6-amino-5-(3-methylisoxazol-5-yl)pyridin-3-yl)-N-(trans-4-hydroxypyrrolidin-3-yl)-4-methylbenzenesulfon-amide acetic acid salt] | 29.1
4 | Cc1nnc(-c2cc(-c3cc(S(=O)(=O)NCC(C)(C)O)ccc3C)cnc2N)s1 [Example 102, 3-(6-amino-5-(5-methyl-1,3,4-thiadiazol-2-yl)pyridin-3-yl)-N-(2-hydroxy-2-methylpropyl)-4-methylbenzenesulfonamide] | 0.98
5 | Cc1ncc(-c2cc(-c3cc(S(=O)(=O)NCC4(CO)COC4)ccc3C)cnc2N)s1 [Example 68, 3-(6-Amino-5-(2-methylthiazol-5-yl)pyridin-3-yl)-N-((3-(hydroxymethyl)oxetan-3-yl)methyl)-4-methylbenzenesulfonamide] | 0.63
6 | Cc1cc(-c2cc(-c3cc(S(=O)(=O)NCC4(O)CCOCC4)ccc3C)cnc2N)on1 [Example 54, 3-(6-Amino-5-(3-methylisoxazol-5-yl)pyridin-3-yl)-N-((4-hydroxytetrahydro-2H-pyran-4-yl)methyl)-4-methylbenzenesulfonamide] | 1.02
7 | Cc1cc(-c2cc(-c3cc(S(=O)(=O)NC[C@@H]4CCOC4)ccc3C)cnc2N)on1 [Example 38, (S)-3-(6-Amino-5-(3-methylisoxazol-5-yl)pyridin-3-yl)-4-methyl-N-((tetrahydrofuran-3-yl)methyl)benzenesulfonamide] | 0.65
8 | Cc1ncc(-c2cc(-c3cc(S(=O)(=O)NCCC(C)(C)O)ccc3C)cnc2N)s1 [Example 4, 3-(6-Amino-5-(2-methylthiazol-5-yl)pyridin-3-yl)-N-(3-hydroxy-3-methylbutyl)-4-methylbenzenesulfonamide] | 0.28
9 | Cc1noc(-c2cc(-c3cc(S(=O)(=O)NCC4(CO)COC4)ccc3C)cnc2N)n1 [Example 52, 3-(6-Amino-5-(3-methyl-1,2,4-oxadiazol-5-yl)pyridin-3-yl)-N-((3-(hydroxymethyl)oxetan-3-yl)methyl)-4-methylbenzenesulfonamide] | 1.75
10 | Cc1noc(-c2cc(-c3cc(S(=O)(=O)NCC4(C)COC4)ccc3C)cnc2N)n1 [Example 4.9, 3-(6-Amino-5-(3-methyl-1,2,4-oxadiazol-5-yl)pyridin-3-yl)-4-methyl-N-((3-methyloxetan-3-yl)methyl)benzene-sulfonamide] | 3.16
11 | Cc1cc(-c2cc(-c3cc(S(=O)(=O)NCC4(C)COC4)ccc3C)cnc2N)on1 [Example 17, 3-[6-Amino-5-(3-methyl-isoxazol-5-yl)-pyridin-3-yl]-4-methyl-N-(3-methyl-oxetan-3-ylmethyl)-benzenesulfonamide hydrochloride] | 2.62
12 | Cc1ncc(-c2cc(-c3cc(S(=O)(=O)NCC(C)(C)O)ccc3C)cnc2N)o1 [Example 6, 3-(6-Amino-5-(2-methyloxazol-5-yl)pyridin-3-yl)-N-(2-hydroxy-2-methylpropyl)-4-methylbenzenesulfonamide] | 0.99
13 | Cc1noc(-c2cc(-c3cc(S(=O)(=O)NCCC(C)(C)O)ccc3C)cnc2N)n1 [Example 5, 3-[6-Amino-5-(3-methyl-[1,2,4]oxadiazol-5-yl)-pyridin-3-yl]-N-(3-hydroxy-3-methyl-butyl)-4-methyl-benzenesulfonamide hydrochloride] | 0.25
14 | Cc1ncc(-c2cc(-c3cc(S(=O)(=O)NCC4(O)COC4)ccc3C)cnc2N)s1 [Example 83.3, 3-(6-amino-5-(2-methylthiazol-5-yl)pyridin-3-yl)-N-((3-hydroxyoxetan-3-yl)methyl)-4-methylbenzenesulfonamide] | 0.76
15 | Cc1cc(-c2cc(-c3cc(S(=O)(=O)NCC4COC4)ccc3C)cnc2N)on1 [Example 25, 3-(6-Amino-5-(3-methylisoxazol-5-yl)pyridin-3-yl)-4-methyl-N-(oxetan-3-ylmethyl)benzenesulfonamide] | 1.03
16 | Cc1ccc(S(=O)(=O)NCC(C)(C)O)cc1-c1cnc(N)c(-c2cnn(C)n2)c1 [Example 4.4, 3-(6-amino-5-(2-methyl-2H-1,2,3-triazol-4-yl)pyridin-3-yl)-N-(2-hydroxy-2-methylpropyl)-4-methylbenzenesulfonamide hydrochloride] | 0.94
17 | Cc1ncc(-c2cc(-c3cc(S(=O)(=O)N[C@H]4CC[C@H](O)CC4)ccc3C)cnc2N)o1 [Example 98, 3-(6-amino-5-(2-methyloxazol-5-yl)pyridin-3-yl)-N-((1r,4r)-4-hydroxycyclohexyl)-4-methylbenzenesulfonamide hydrochloride] | 0.31

Row | SMILES | IC50 [µM]
18 | CCN1CCC[C@@H]1CNS(=O)(=O)c1ccc(C)c(-c2cnc(N)c(-c3cc(C)no3)c2)c1 [Example 37.27, (R)-3-(6-Amino-5-(3-methylisoxazol-5-yl)pyridin-3-yl)-N-((1-ethylpyrrolidin-2-yl)methyl)-4-methylbenzenesulfonamide] | 0.69
19 | Cc1cc(-c2cc(-c3cc(S(=O)(=O)NCC(F)(F)F)ccc3C)cnc2N)on1 [Example 39, 3-(6-Amino-5-(3-methylisoxazol-5-yl)pyridin-3-yl)-4-methyl-N-(2,2,2-trifluoroethyl)benzenesulfonamide] | 2
20 | Cc1ncc(-c2cc(-c3cc(S(=O)(=O)NCCCO)ccc3C)cnc2N)s1 [Example 9, 3-[6-Amino-5-(2-methyl-thiazol-5-yl)-pyridin-3-yl]-N-(3-hydroxy-propyl)-4-methyl-benzenesulfonamide] | 1.28
21 | Cc1ncc(-c2cc(-c3cc(S(=O)(=O)NCC4(CO)COC4)ccc3C)cnc2N)o1 [Example 67, 3-(6-Amino-5-(2-methyloxazol-5-yl)pyridin-3-yl)-N-((3-(hydroxymethyl)oxetan-3-yl)methyl)-4-methylbenzenesulfonamide] | 0.67
22 | Cc1ccc(S(=O)(=O)N[C@H]2CC[C@H](O)CC2)cc1-c1cnc(N)c(-c2nc(CC(F)(F)F)no2)c1 [Example 78, trans-3-(6-Amino-5-(3-(2,2,2-trifluoroethyl)-1,2,4-oxadiazol-5-yl)pyridin-3-yl)-N-((1r,4r)-4-hydroxycyclohexyl)-4-methylbenzenesulfonamide] | 1.97
23 | Cc1ccc(S(=O)(=O)NCCC(C)(C)O)cc1-c1cnc(N)c(-c2cnn(CC(F)(F)F)c2)c1 [Example 3, 3-(6-Amino-5-(1-(2,2,2-trifluoroethyl)-1H-pyrazol-4-yl)pyridin-3-yl)-N-(3-hydroxy-3-methylbutyl)-4-methylbenzenesulfonamide] | 0.5
24 | Cc1cc(-c2cc(-c3cc(S(=O)(=O)N[C@H]4CCC[C@H](O)C4)ccc3C)cnc2N)on1 [Example 19.16, 3-(6-amino-5-(3-methylisoxazol-5-yl)pyridin-3-yl)-N-((1S,3S)-3-hydroxycyclohexyl)-4-methylbenzenesulfon-amide trifluoroacetic acid salt] | 1.86
25 | Cc1noc(-c2cc(-c3cc(S(=O)(=O)NCC(C)(C)O)c(C)cc3C)cnc2N)n1 [Example 100] | 3.24
26 | Cc1noc(-c2cc(-c3cc(S(=O)(=O)NOCC(C)(C)O)ccc3C)cnc2N)n1 [Example 11, 3-[6-Amino-5-(3-methyl-[1,2,4]oxadiazol-5-yl)-pyridin-3-yl]-N-(2-hydroxy-2-methyl-propoxy)-4-methyl-benzenesulfonamide, hydrochloride salt] | 0.44
27 | Cc1ncc(-c2cc(-c3cc(S(=O)(=O)NCC(C)(C)O)ccc3C)cnc2N)s1 [Example 15, 3-[6-Amino-5-(2-methyl-thiazol-5-yl)-pyridin-3-yl]-N-(2-hydroxy-2-methyl-propyl)-4-methyl-benzenesulfonamide] | 1.91
28 | Cc1noc(-c2cc(-c3cc(S(=O)(=O)NCC(C)(C)O)c(F)cc3C)cnc2N)n1 [Example 85, 5-(6-Amino-5-(3-methyl-1,2,4-oxadiazol-5-yl)pyridin-3-yl)-2-fluoro-N-(2-hydroxy-2-methylpropyl)-4-methylbenzenesulfonamide] | 1.42
29 | Cc1nnc(-c2cc(-c3cc(S(=O)(=O)NCCC(C)(C)O)ccc3C)cnc2N)s1 [Example 105, 3-(6-amino-5-(5-methyl-1,3,4-thiadiazol-2-yl)pyridin-3-yl)-N-(3-hydroxy-3-methylbutyl)-4-methylbenzenesulfonamide] | 1.92
30 | Cc1cccc(NS(=O)(=O)c2ccc(C)c(-c3cnc(N)c(-c4cnn(CC(F)(F)F)c4)c3)c2)n1 [Example 1, 3-{6-Amino-5-[1-(2,2,2-trifluoro-ethyl)-1H-pyrazol-4-yl]-pyridin-3-yl}-4-methyl-N-(6-methyl-pyridin-2-yl)-benzenesulfonamide] | 2.19
31 | Cc1cccc(NS(=O)(=O)c2ccc(C)c(-c3cnc(N)c(-c4nc(C)no4)c3)c2)n1 [Example 72, 3-(6-Amino-5-(3-methyl-1,2,4-oxadiazol-5-yl)pyridin-3-yl)-4-methyl-N-(6-methylpyridin-2-yl)benzenesulfonamide] | 19.4
32 | Cc1ncc(-c2cc(-c3cc(S(N)(=O)=O)ccc3C)cnc2N)s1 [Example 74, 3-(6-Amino-5-(2-methylthiazol-5-yl)pyridin-3-yl)-4-methylbenzenesulfonamide] | 16.7
33 | Cc1ncc(-c2cc(-c3cc(S(N)(=O)=O)ccc3C)cnc2N)o1 [Example 33, 3-(6-Amino-5-(2-methyloxazol-5-yl)pyridin-3-yl)-4-methylbenzenesulfonamide] | 19.4
34 | Cc1ncc(-c2cc(-c3cc(S(=O)(=O)NCCC(C)(C)O)ccc3C)cnc2N)o1 [Example 13, 3-[6-Amino-5-(2-methyl-oxazol-5-yl)-pyridin-3-yl]-N-(3-hydroxy-3-methyl-butyl)-4-methyl-benzenesulfonamide, hydrochloride salt] | 0.66
